The campaign covered roughly 390,000 compounds. About 4,000 (1%) were called active. The shares of active, inactive and inconclusive entries below differ from those in the screen. Calls follow the shape of the dose curve; as a rule, active = well fitted inhibition curve with a large enough effect; inconclusive = small, poorly fitted or top-dose-only effect; inactive = no such curve, though single readings can be large or run the other way. Where the call is inconclusive, the potency comes from a doubtful curve fit.
biological target: Thioredoxin reductase 1, cytoplasmic (Rattus norvegicus) (UniProt O89049); assay: qHTS Assay for Inhibitors of Mammalian Selenoprotein Thioredoxin Reductase 1 (TrxR1): qHTS; settings: recombinant rTrxR1, NADPH fluorescence consumption, selenite substrate; series mostly up to 114 µM; also: nearly all actives have a fitted effect of over 65% in size
How it was run: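 Rat TrxR1 (90 nM in the dispensed reagent) was pre-reduced with 400 uM NADPH for 5 min at room temperature, then incubated with compound for 15 min. After 400 uM selenite was added, NADPH fluorescence (Ex 340/Em 450 nm) was followed for 8 min.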
Potency is read from the fitted curve at half-maximal effect; tags tell the direction and shape of the fitted curve.

UniProt O89049, sequence (O89049 whole entry, looked up): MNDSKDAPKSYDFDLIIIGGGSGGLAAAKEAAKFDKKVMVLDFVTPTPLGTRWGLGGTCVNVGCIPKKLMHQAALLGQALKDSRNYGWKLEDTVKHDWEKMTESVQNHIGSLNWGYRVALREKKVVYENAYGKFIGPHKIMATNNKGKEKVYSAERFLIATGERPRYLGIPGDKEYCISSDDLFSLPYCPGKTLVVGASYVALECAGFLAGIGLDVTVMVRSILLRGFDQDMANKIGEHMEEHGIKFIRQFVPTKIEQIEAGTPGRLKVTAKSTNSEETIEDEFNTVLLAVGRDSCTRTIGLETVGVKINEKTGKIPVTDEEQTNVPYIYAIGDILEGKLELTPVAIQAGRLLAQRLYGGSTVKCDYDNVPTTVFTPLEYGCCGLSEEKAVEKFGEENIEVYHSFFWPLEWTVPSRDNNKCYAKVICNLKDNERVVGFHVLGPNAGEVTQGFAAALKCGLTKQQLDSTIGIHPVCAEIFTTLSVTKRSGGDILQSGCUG

| Compound | Potency |
| --- | --- |
| COc1ccc(/C=C2\SC(=S)N(CCCC(=O)Nc3ccc(C(=O)O)cc3)C2=O)cc1OC | inconclusive: 79.4 µM [inhibitor, partial curve, poor fit] |
| Cc1ccc2oc3c(c(=O)c2c1)C(c1cccs1)N(CCCN(C)C)C3=O (stereo unspecified) | inconclusive: 25.1 µM [inhibitor, partial curve, poor fit] |
| Cc1ccc(-n2cc(CNCCCN3CCCC3=O)c(-c3ccc(F)cc3)n2)cc1 | inconclusive: 89.1 µM [inhibitor, partial curve, poor fit] |
| COc1ccc2c(=O)c3c(=O)n(Cc4ccco4)c(-c4ccccc4)nc3oc2c1 | inconclusive: 28.2 µM [inhibitor, partial curve] |
| COc1ccc(C(=O)N/C(=C/c2ccco2)C(=O)N2CCCCCC2)cc1 | inconclusive: 50.1 µM [inhibitor, partial curve, poor fit] |
| Cc1cc(C)c(C(=O)CSc2nnc(-c3cccnc3)n2C)c(C)c1 | inconclusive: 28.2 µM [inhibitor, partial curve, poor fit] |
| COc1ccc(Oc2ccccc2/C=N/O)cc1 | inconclusive: 3.98 µM [inhibitor, partial curve, poor fit] |
| Cc1csc2nc(COC(=O)c3ccc(Cl)c([N+](=O)[O-])c3)cc(=O)n12 | inactive |
| O=C(CCNS(=O)(=O)c1cccs1)NCc1ccco1 | inconclusive: 25.1 µM [inhibitor, partial curve, poor fit] |
| COC(=O)c1ccc(CSc2nnnn2-c2ccc(C)cc2C)o1 | inconclusive: 20 µM [inhibitor, full curve] |
| Cc1ccc2nc(-c3ccc(N4C(=NC(=O)CCC(=O)O)SC5CS(=O)(=O)CC54)cc3)sc2c1 (stereo unspecified) | inactive |
| COc1cc(C2C3=C(CC(c4ccco4)CC3=O)Nc3ccccc3N2C(C)=O)cc(OC)c1OC (stereo unspecified) | inconclusive: 100 µM [inhibitor, single point] |
| O=C(c1ccc(Cl)cc1)N1CCN(CCc2ccncc2)CC1 | inconclusive: 22.4 µM [inhibitor, full curve] |
| CN(C)NC(=O)c1ccsc1NC(=O)c1ccc(S(=O)(=O)N2CCCC2)cc1 | inactive |
| Cc1ccc(C2=CC(c3ccc(C)cc3)n3ncnc3N2)cc1 (stereo unspecified) | inconclusive: 70.8 µM [inhibitor, partial curve] |
| CC1(OC(=O)c2ccco2)C(=O)C=C2C=C(C3CC3)OC=C2C1=O (stereo unspecified) | inconclusive: 50.1 µM [inhibitor, partial curve] |
| N#CCc1c(C#N)c(N)nc(N2CCN(C=O)CC2)c1C#N | inconclusive: 3.55 µM [inhibitor, full curve] |
| O=C1OCCN1/N=C/c1ccc([N+](=O)[O-])o1 | inconclusive: 11.2 µM [inhibitor, full curve] |
| CN(C)C(CNC(=O)c1cnc(Cl)c(Cl)c1)c1ccccc1 (stereo unspecified) | inconclusive: 35.5 µM [inhibitor, partial curve, poor fit] |
| CC(C)(C)NC(=O)C(c1ccc(Cl)cc1)N(Cc1ccco1)C(=O)CCl (stereo unspecified) | active: 12.6 µM |
| COc1ccc(-c2noc(CCC(=O)NCc3ccco3)n2)cc1 | inconclusive: 44.7 µM [inhibitor, partial curve, poor fit] |

| Compound | Potency |
| --- | --- |
| O=[N+]([O-])c1cc(C=Nc2ccc3ccccc3c2)ccc1Br | inconclusive: 79.4 µM [inhibitor, partial curve] |
| CC(C)NC(=O)N(C)C[C@H]1Oc2ccc(NS(=O)(=O)c3cn(C)cn3)cc2C(=O)N([C@H](C)CO)C[C@@H]1C | inconclusive: 56.2 µM [inhibitor, partial curve, poor fit] |
| COC(=O)C1=C(C)N(c2ccc(OC)c(OC)c2)C(=O)C1 | inconclusive: 31.6 µM [inhibitor, single point] |
| C=CCn1c(SCc2cc(C(=O)OC)c(C)o2)nnc1-c1ccncc1 | inconclusive: 11.2 µM [inhibitor, full curve] |
| CC(=O)N(c1ccccc1)c1ccc([N+](=O)[O-])cc1[N+](=O)[O-] | inconclusive: 79.4 µM [inhibitor, partial curve] |
| CCC1CCCCN1CCCNC(=O)C1CCN(Cc2nc(-c3ccc(Cl)cc3)oc2C)CC1 (stereo unspecified) | inconclusive: 100 µM [inhibitor, partial curve, poor fit] |
| O=C(N/N=C/c1ccc2ccccc2c1)c1ccc(COc2ccc3c(c2)CCC3)o1 | inconclusive: 70.8 µM [inhibitor, single point] |
| CCOc1ccccc1N1CCN(C(=S)NCc2ccco2)CC1 | inconclusive: 31.6 µM [inhibitor, partial curve] |
| CC(C)(C)N(CC#CCC(O)(c1ccccc1)c1ccccc1)CCO | inactive |
| Cc1cccc(N2C(=O)CC(Sc3nnc(C)s3)C2=O)c1 (stereo unspecified) | active: 20 µM |
| CN1/C(=C/C(=O)c2nc(S(C)(=O)=O)ncc2Cl)C(C)(C)c2ccccc21 | active: 50.1 µM |
| O=C(/C=C\c1ccccc1)Nc1ccc(NC(=O)c2ccco2)cc1 | inactive |
| N#Cc1cn(-c2ccccc2)nc1-c1ccco1 | inconclusive: 44.7 µM [inhibitor, partial curve, poor fit] |
| COc1cccc(CN2CCNC(=O)C2CC(=O)O)c1OC (stereo unspecified) | inconclusive: 50.1 µM [inhibitor, partial curve, poor fit] |
| CCN(CC)c1ccc(/C=N/N2CCOCC2)c(O)c1 | inactive |
| O=C(NCCOCCn1c(=O)oc2ccccc21)Nc1ccc(F)cc1 | inactive |
| Fc1ccc(NC(=S)Nc2cccc3cnccc23)cc1 | inconclusive: 39.8 µM [inhibitor, single point] |
| CCOc1cc(/C=C2/C(=O)ON=C2C)ccc1O | inconclusive: 14.1 µM [inhibitor, full curve] |
| O=[N+]([O-])c1ccc(Oc2cccnc2)c([N+](=O)[O-])c1 | inconclusive: 89.1 µM [inhibitor, single point] |
| COc1ccccc1N1CCN(C(c2cccs2)C(C)NC(=O)C(=O)N2CCOCC2)CC1 (stereo unspecified) | inconclusive: 79.4 µM [inhibitor, single point] |

— PubChem BioAssay AID588453 (National Center for Advancing Translational Sciences (NCATS), 2011)
